Among all 350,000 compounds or so, about 31,000 (8.9%) were called active. The inconclusive results got no clear call from the source; some entries with a clear call stand among them for comparison. Calls come from the whole dose curve; as a rule, active = well fitted inhibition curve with a large enough effect; inconclusive = small, poorly fitted or top-dose-only effect; inactive = no such curve, though single readings can be large or run the other way. Potencies of inconclusive entries are doubtful fits and often do not repeat.
Each molecule was assayed against Histone-lysine N-methyltransferase EHMT2 (Homo sapiens) (UniProt Q96KQ7) (assay: qHTS Assay for Inhibitors of Histone Lysine Methyltransferase G9a). Conditions: G9a H3K9 monomethylation, AlphaScreen, 2 h; activity, negative = inhibition: at 59 µM (top of the series) unless noted.
Method in brief: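 Readings reflect AlphaScreen signal from monomethyl-H3K9 antibody detection. HMT at 20 nM; substrate b-H3K9 500 nM; cofactor SAM 20 uM; 2 h RT reaction; compounds tested as titrations in qHTS with 15 min preincubation.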
% is set by controls: 0 for no effect and ±100 for the full control effect; potency is the fitted concentration of half-maximal effect; tags give direction and shape of the fitted curve.
Note: nearly all actives have a fitted effect of over 75% in size.

Chain of UniProt Q96KQ7 (Q96KQ7 whole entry, looked up): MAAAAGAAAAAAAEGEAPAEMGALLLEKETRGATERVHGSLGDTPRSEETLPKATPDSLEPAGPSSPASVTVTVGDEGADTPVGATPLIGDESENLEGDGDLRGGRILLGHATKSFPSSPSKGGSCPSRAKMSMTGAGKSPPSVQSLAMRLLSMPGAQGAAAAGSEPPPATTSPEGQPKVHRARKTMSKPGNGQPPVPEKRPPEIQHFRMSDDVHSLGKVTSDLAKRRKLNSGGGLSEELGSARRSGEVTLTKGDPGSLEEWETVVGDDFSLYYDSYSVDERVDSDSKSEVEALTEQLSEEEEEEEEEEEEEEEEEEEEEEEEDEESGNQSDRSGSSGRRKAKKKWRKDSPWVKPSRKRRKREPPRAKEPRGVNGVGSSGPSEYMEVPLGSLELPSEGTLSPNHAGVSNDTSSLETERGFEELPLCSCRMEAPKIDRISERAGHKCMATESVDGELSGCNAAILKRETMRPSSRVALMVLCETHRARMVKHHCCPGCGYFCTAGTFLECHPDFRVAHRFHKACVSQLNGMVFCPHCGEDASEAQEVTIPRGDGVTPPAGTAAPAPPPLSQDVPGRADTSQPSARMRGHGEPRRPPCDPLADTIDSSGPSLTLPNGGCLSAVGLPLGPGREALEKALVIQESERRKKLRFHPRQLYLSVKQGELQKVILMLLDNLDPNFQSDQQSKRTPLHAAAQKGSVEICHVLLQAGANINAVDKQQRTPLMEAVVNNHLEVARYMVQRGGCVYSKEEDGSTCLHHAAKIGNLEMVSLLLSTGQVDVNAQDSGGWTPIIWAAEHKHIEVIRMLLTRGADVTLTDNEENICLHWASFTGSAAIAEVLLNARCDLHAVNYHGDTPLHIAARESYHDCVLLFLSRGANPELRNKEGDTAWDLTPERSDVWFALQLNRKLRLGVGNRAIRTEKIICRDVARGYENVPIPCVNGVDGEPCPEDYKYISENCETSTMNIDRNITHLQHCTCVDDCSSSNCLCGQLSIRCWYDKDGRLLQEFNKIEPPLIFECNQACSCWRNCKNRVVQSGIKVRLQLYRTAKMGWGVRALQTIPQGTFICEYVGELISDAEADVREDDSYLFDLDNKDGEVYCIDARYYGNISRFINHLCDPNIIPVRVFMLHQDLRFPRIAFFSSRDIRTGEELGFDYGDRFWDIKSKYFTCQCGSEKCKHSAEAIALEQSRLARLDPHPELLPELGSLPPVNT

SMILES | Potency | activity, negative = inhibition
CCc1ccc2[nH]c(C(=O)Nc3ccc(F)cc3Br)cc2c1 | active: 44.7 µM | –
CCn1c(SCC(=O)OC)nnc1-c1ccncc1 | inconclusive: 39.8 µM [inhibitor, single point] | –
O=C(c1ccco1)N1CCN(C(=O)C2CC(c3ccc(F)cc3)=NO2)CC1 (stereo not given) | inconclusive: 89.1 µM [inhibitor, single point] | –
CCCNC(=O)COC(=O)c1c2c(nc3ccccc13)CCC2 | active: 39.8 µM | –
Cc1ccc2c(c1)N(CC(=O)NCC1CCCO1)C(=O)CO2 (stereo not given) | – | inactive: 12.4% [at 102 µM]
O=C(NCc1ccccc1)C(c1ccncc1)N(C(=O)c1csnn1)c1ccccc1F (stereo not given) | inconclusive: 79.4 µM [inhibitor, partial curve, poor fit] | –
CC(C)c1onc(C(=O)N2CCN(Cc3ccccc3)CC2)c1[N+](=O)[O-] | inconclusive: 89.1 µM [inhibitor, single point] | –
c1cncc(CNc2ncncc2-c2cccnc2)c1 | – | inactive: 9.35% [at 0.501 µM]
CCN1CCN(C(=S)Nc2cccc(C(F)(F)F)c2)CC1 | inconclusive: 25.1 µM [inhibitor, single point] | –
COc1ccc(NS(=O)(=O)CC(C)C)c(OC)c1 | inconclusive: 39.8 µM [inhibitor, single point] | –
Cc1ccc(S(=O)(=O)c2ccc([N+](=O)[O-])cn2)cc1 | active: 39.8 µM | –
FC(F)(F)c1ccc(CN2C[C@@H]3C(c4ccccc4)C4(c5cccnc5)CC3(C4)[C@H]2c2ccccc2)cc1 (stereo not given in full) | inconclusive: 7.08 µM [inhibitor, single point] | –
CCCCOC(=O)Cn1c(=O)n(CC(=O)OCCCC)c2ccccc21 | – | inactive: 27.1% [at 102 µM]
CCCCNC(=O)Nc1cc(C(F)(F)F)c[nH]c1=O | – | inactive: -41.5% [at 12.7 µM]
O=C(COC(=O)/C=C/c1ccc2c(c1)OCO2)Nc1ccccc1 | – | inactive: 13.3% [at 102 µM]
CCOC(=O)c1cc2occc2n1Cc1c(F)cccc1Cl | – | inconclusive: -63.6% [inhibitor]
COc1ccc(CCC(C)Nc2cccc(C)c2)cc1 (stereo not given) | inconclusive: 89.1 µM [inhibitor, single point] | –
COc1cccc(CC2(CO)CCCN(Cc3cn[nH]c3-c3ccc(F)cc3)C2)c1 (stereo not given) | inconclusive: 4.47 µM [inhibitor, partial curve] | –
CC1(c2nnc(Cc3ccccc3)o2)CC(c2cccc(F)c2)=NO1 (stereo not given) | – | inactive: -8.22% [at 2.33 µM]
O=C(CSc1cccc[n+]1[O-])NC1CCCCCCC1 | inconclusive: 79.4 µM [inhibitor, single point] | –
Cc1cccc(C)c1NC(=O)c1ccc2c(c1)nnn2C1CCCC1 | – | inactive: -9.61%
CCOc1ccc(NC(=S)N(CCCN2CCOCC2)Cc2cn(C)c3ccccc23)cc1 | inconclusive: 10 µM [inhibitor, partial curve] | –
CC(=O)c1ccc(N2CCN(S(=O)(=O)c3ccc(-c4coc(C)n4)cc3)CC2)cc1 | – | inactive: 0.254%
NC(=O)CC(NC(=O)c1ccccc1)c1ccc(NC2CCCC2)c([N+](=O)[O-])c1 (stereo not given) | – | inactive: -29.5% [at 12.7 µM]

SMILES | Potency | activity, negative = inhibition
Cc1ccc(OCc2nnc(SCC(=O)Nc3ccc4c(c3)OCCO4)n2Cc2ccco2)cc1 | inconclusive: 39.8 µM [inhibitor, single point] | –
COC(=O)CN1C(=O)CSc2ncccc21 | inconclusive: 31.6 µM [inhibitor, full curve] | –
Cc1ccccc1COC[C@H](CC(C)C)N1CCN(C(=O)c2cccc(C(F)(F)F)c2)CCC1=O | – | inactive: -1.81% [at 102 µM]
COc1ccc(Cc2nn3c(Cn4nnc5ccccc54)nnc3s2)cc1 | active: 1.58 µM | –
N#CC1=C(O)C(c2ccccc2)n2c1nc(=O)c1ccccc12 (stereo not given) | active: 25.1 µM | –
CCN(Cc1ccccc1)C(=O)c1cccc(S(=O)(=O)N2CCN(Cc3ccccc3)CC2)c1 | inconclusive: 31.6 µM [inhibitor, partial curve, poor fit] | –
CC(=O)Nc1cccc(N/C=C(\C=O)c2nc3ccccc3o2)c1 | inconclusive: 100 µM [inhibitor, single point] | –
CC(=O)c1ccccc1NC(=O)Cn1c(=O)cnc2ccccc21 | – | inactive: 2.54%
COc1ccc(NC(=S)N/N=C/c2ccc(F)cc2)cc1OC | inconclusive: 70.8 µM [inhibitor, partial curve] | –
COC(=O)c1c(NC(=O)CN2C(=O)C(=O)N(C(C)C)C2=O)sc(C)c1C | – | inactive: 1.01% [at 2.33 µM]
COc1ccc(CN2C(=O)C(Cc3ccccc3)Nc3ncnc(N4CCCCC4)c32)cc1 (stereo not given) | inconclusive: 3.55 µM [inhibitor, single point] | –
Cc1cccc(NC(=O)CSCC(=O)Nc2ccc(S(=O)(=O)N3CCCC3)cc2)c1 | inconclusive: 20 µM [inhibitor, partial curve] | –
CCC1CCCCN1CCCNC(=O)c1ccc2nc(N3CCCCC3)sc2c1 (stereo not given) | inconclusive: 79.4 µM [inhibitor, single point] | –
O=C(/C=C/c1ccc(-c2ccccc2)cc1)NCc1cccnc1 | – | inactive: -4.39% [at 0.501 µM]
CC(C)CC(=O)NC(=S)NNC(=O)c1ccc(NC(=O)C2CCCCC2)cc1 | inconclusive: 20 µM [inhibitor, single point] | –
CCN(C(=O)C1CCN(S(=O)(=O)c2cc(Br)cc3c2N(C(C)=O)CC3)CC1)c1cccc(C)c1 | – | inactive: -11.7%
COc1cccc(CNc2nnnn2C)c1OC | inconclusive: 10 µM [inhibitor, single point] | –
O=C(CSc1nccn1-c1cccc(Cl)c1)Nc1ccc2c(c1)OCO2 | active: 11.2 µM | –
Cc1ccccc1Cc1c(C)nc2c(C(=O)NCc3ccc4c(c3)OCO4)cnn2c1C | inconclusive: 89.1 µM [inhibitor, partial curve, poor fit] | –
Cc1ccc(Cn2nnc(C(=O)Nc3cc(C)ccc3C)c2N)cc1 | – | inactive: -14.1%
COc1ccc(S(=O)(=O)N(C)CC(=O)NCCCn2ccnc2)cc1Cl | – | inactive: -2.32% [at 102 µM]
Cc1ccc(C(=O)CSc2nnc3c4ccccc4nc(C(C)(C)C)n23)cc1 | inconclusive: 3.55 µM [inhibitor, single point] | –
COC(c1ccccc1)c1nnc(CCC(=O)NC2CCCCC2)o1 (stereo not given) | inconclusive: 0.891 µM [inhibitor, full curve] | –
O=C(O)CN(c1ccccc1)S(=O)(=O)c1cc(C(F)(F)F)cc(C(F)(F)F)c1 | inconclusive: 79.4 µM [inhibitor, partial curve, poor fit] | –

SMILES | Potency | activity, negative = inhibition
CC(=O)c1c(C)[nH]c(C(=O)/C(C#N)=C/c2cccc(C)c2)c1C | inconclusive: 89.1 µM [inhibitor, single point] | –
O=C(CSC1=NCCS1)Nc1ccc(S(=O)(=O)N2CCCCCC2)cc1 | inconclusive: 31.6 µM [inhibitor, single point] | –
CCc1nn(CC(=O)N2CCN(c3ccc(OC)cc3)CC2)c(=O)c2cc3sccc3n12 | inconclusive: 10 µM [inhibitor, partial curve, poor fit] | –
Cc1cccc(C)c1Nc1nnc(SCc2nc3ccccc3s2)s1 | active: 8.91 µM | –
CN(C)CCCN(C(=O)/C=C/c1cccs1)c1nc2ccc(F)cc2s1 | inconclusive: 63.1 µM [inhibitor, partial curve, poor fit] | –
CCc1nnc(NC(=O)c2csc3c2CCC(C)C3)s1 (stereo not given) | – | inactive: 10.6% [at 102 µM]
CC(=O)Nc1cccc(C(=O)Nc2cccnc2)c1 | inconclusive: 31.6 µM [inhibitor, partial curve, poor fit] | –
O=C(N/N=C/c1cccc(F)c1)c1cc(-c2ccco2)nc2ccccc12 | – | inconclusive: -82.7% [inhibitor]
CNC(=O)[C@@]1(C)C=C[C@@H](Cc2ccccc2)N1C(=O)OC | active: 79.4 µM | –
c1coc(Cn2c(-c3ccco3)nc3ccccc32)c1 | inconclusive: 31.6 µM [inhibitor, single point] | –
CCC(C)OC(=O)n1ccc(C(=O)Nc2nccs2)n1 (stereo not given) | inconclusive: 28.2 µM [inhibitor, single point] | –
CCOC(=O)c1[nH]c(CSc2nnc(-c3ccc(OC)cc3)o2)c(C(=O)OCC)c1C | inconclusive: 79.4 µM [inhibitor, partial curve, poor fit] | –
CC(NC(=O)C1CCC1)c1ccc(Br)cc1 (stereo not given) | inconclusive: 3.98 µM [inhibitor, single point] | –
NC(=O)[C@H]1CC2(CC(c3cccc(NC(=O)[C@H]4CCC(=O)N4)c3)=NO2)CN1C(=O)c1ccccc1 (stereo not given in full) | inconclusive: 7.08 µM [inhibitor, single point] | –
COc1cccc(C(=O)NCc2n[nH]c(=S)n2-c2cccc(C)c2)c1 | inconclusive: 28.2 µM [inhibitor, full curve, poor fit] | –
CO/N=C/C(=N\Nc1ccc(C)cc1)C(=O)c1ccc(OC)cc1 | – | inactive: -42.2% [at 102 µM]
O=C(NC(=S)Nc1ccc2oc(=O)ccc2c1)c1ccc(-c2cccc(Cl)c2Cl)o1 | active: 10 µM | –
CC1CCCC(C)N1C(=O)CSCc1ccc(Cl)cc1 (stereo not given) | – | inactive: 9.68% [at 102 µM]
CCOC(=O)N1CCN(c2cc(N(C)CCO)c([N+](=O)[O-])c3nonc23)CC1 | inconclusive: 89.1 µM [inhibitor, partial curve, poor fit] | –
O=C(Nc1nncs1)C(Sc1ccccc1)c1ccccc1 (stereo not given) | inconclusive: 31.6 µM [inhibitor, single point] | –
COc1ccc(N2CCN(C(=O)c3ccc(C)c(NC(=O)c4ccco4)c3)CC2)cc1 | inconclusive: 8.91 µM [inhibitor, partial curve, poor fit] | –
Cn1c(SCc2ccc(Br)cc2)nnc1-c1ccccn1 | inconclusive: 89.1 µM [inhibitor, single point] | –
